Measured values as given in the supplement of paper PMC4166925.
± gives the standard deviation of the averaged measurements. In all, about 33,000 sequences were measured (“E-score (dimensionless, -0.5 to 0.5)”: median about -0.046, highest 2% from about 0.36 on). This is one part of the list.

tested on: T1, SpTbr T-box DNA-binding domain (GST fusion); assay: PBM E-score of 8-mer (E-score (dimensionless, -0.5 to 0.5)); Tbr is Tbrain of the sea star Patiria miniata (Pm) or the sea urchin Strongylocentrotus purpuratus (Sp); higher = stronger binding preference; most listed sequences are background and not binding sites; conditions: the construct has about 5 more residues each side
T1 sequence: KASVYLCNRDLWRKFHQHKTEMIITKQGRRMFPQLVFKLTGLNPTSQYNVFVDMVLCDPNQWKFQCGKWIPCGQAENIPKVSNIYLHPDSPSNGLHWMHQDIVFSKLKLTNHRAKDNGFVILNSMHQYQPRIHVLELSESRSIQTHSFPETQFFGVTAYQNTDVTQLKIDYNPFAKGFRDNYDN
Procedure, shortened: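 Each ungapped 8-mer received an enrichment E-score from the Universal PBM Analysis Suite, averaged over duplicate arrays. The proteins were Tbr T-box DNA-binding domains, covering the whole T-box plus about five flanking residues, fused to GST and expressed in BL21 E. coli at 20 °C before glutathione affinity purification. Universal Agilent oligonucleotide arrays were made double-stranded by primer extension and incubated with 200 nM protein in PBS (pH 7.5). The arrays were then scanned and quantified, and every 8-mer was scored from probe intensities.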

Row | Sequence | PBM E-score of 8-mer
1 | AAAGGATC | -0.196 ± 0.077
2 | TCCGCACA | 0.183 ± 0.0035
3 | CGTGGCGA | 0.161 ± 0.027
4 | ATAAAAAA | -0.123 ± 0.0048
5 | GGGTACTA | -0.202 ± 0.048
6 | AACGTTAG | -0.0644 ± 0.047
7 | CACTCCTA | -0.00656 ± 0.054
8 | CTAAATTC | -0.0452 ± 0.035
9 | CGGTTCAC | 0.2389 ± 0.0012
10 | GACTAAGA | -0.162 ± 0.034
11 | AAGACGTA | 0.0109 ± 0.054
12 | AAGCGGAT | -0.0884 ± 0.045
13 | ATGAGGTA | -0.108 ± 0.036
14 | ATCAGTTA | -0.0237 ± 0.0075
15 | CTTTTCTA | 0.0261 ± 0.063
16 | ACGATGAT | 0.1041 ± 0.0003
17 | AGGTGGAT | 0.0851 ± 0.085
18 | CTTCTAAA | -0.0563 ± 0.037
19 | TAGACTGA | -0.134 ± 0.015
20 | CGATCCAG | -0.109 ± 0.011
21 | GTTCGGCA | -0.0944 ± 0.086
22 | ACTCACCA | -0.0326 ± 0.014
23 | ACGCTGAG | -0.115 ± 0.075
24 | AAAATACC | -0.167 ± 0.056
25 | AAGACCCC | -0.266 ± 0.084

Row | Sequence | PBM E-score of 8-mer
26 | TAATGGAA | -0.155 ± 0.11
27 | CGAATCAC | 0.131 ± 0.013
28 | GTGTTCTA | 0.212 ± 0.0066
29 | ACGGCGTA | -0.0858 ± 0.0069
30 | ATTTGAGA | -0.142 ± 0.022
31 | AAGGAACC | -0.0244 ± 0.027
32 | AAAAGTAT | -0.081 ± 0.047
33 | AATCAACC | -0.0279 ± 0.024
34 | AGAAGTGC | 0.216 ± 0.0074
35 | AGCAAGCT | -0.12 ± 0.04
36 | CTAAGAGC | -0.295 ± 0.047
37 | AACCTCGA | -0.0446 ± 0.051
38 | AAGCCGAC | -0.0625 ± 0.085
39 | AGGCCCAC | -0.16 ± 0.066
40 | AACTTGGA | -0.121 ± 0.036
41 | CCACCTCC | 0.324 ± 0.0077
42 | ACTTCCGA | 0.0122 ± 0.091
43 | CGTTCAGC | -0.0117 ± 0.011
44 | GAATACGC | -0.0379 ± 0.024
45 | ACCGTCAA | 0.139 ± 0.029
46 | AACCGCGA | 0.296 ± 0.035
47 | AGGGCGAC | 0.148 ± 0.023
48 | GGGATGAC | -0.0302 ± 0.028
49 | CGTCATAG | -0.123 ± 0.043
50 | GAACATAA | 0.0406 ± 0.046

Row | Sequence | PBM E-score of 8-mer
51 | TCACCGCA | -0.0738 ± 0.0071
52 | CCAGCTGG | -0.14 ± 0.062
53 | GCCTAAAC | 0.0814 ± 0.021
54 | ATGGCCGA | -0.157 ± 0.0097
55 | GGCGGCAA | 0.165 ± 0.031
56 | TCGGGTAA | -0.0376 ± 0.015
57 | CGGCCTGC | -0.2 ± 0.11
58 | AGCGCGTG | 0.252 ± 0.038
59 | GCGGAGAC | -0.0435 ± 0.032
60 | AGTAGTGC | -0.147 ± 0.016
61 | CGGAAGCC | -0.181 ± 0.12
62 | GCAACATA | 0.0557 ± 0.023
63 | AGTGGCGA | 0.345 ± 0.034
64 | GTGTCTGA | 0.284 ± 0.0085
65 | GCGAAGAA | 0.2909 ± 0.0029
66 | GTGTCCTA | 0.142 ± 0.056
67 | ATTCCACG | 0.012 ± 0.05
68 | TGACACCA | 0.419 ± 0.0076
69 | CGCCCAAG | -0.0715 ± 0.092
70 | TCGAATAA | -0.203 ± 0.039
71 | CCAGACAC | 0.241 ± 0.024
72 | CTCGGTCC | -0.155 ± 0.055
73 | CGGTTACA | 0.0905 ± 0.0011
74 | CGTGATAG | 0.226 ± 0.0084
75 | CATTACCC | -0.181 ± 0.074

Row | Sequence | PBM E-score of 8-mer
76 | CATCGCCC | 0.0587 ± 0.042
77 | CTAAACTA | -0.191 ± 0.013
78 | ACAGGCTA | -0.143 ± 0.029
79 | TGATTAAA | -0.0693 ± 0.12
80 | ACCGAGAT | -0.0126 ± 0.015
81 | ATTTTAAG | -0.282 ± 0.051
82 | AAGGGCGT | 0.249 ± 0.011
83 | AGGTAACG | 0.0673 ± 0.013
84 | CATTTTCG | -0.139 ± 0.059
85 | CACTCTCG | 0.262 ± 0.055
86 | GGATAGAA | -0.317 ± 0.024
87 | CCTGCGAG | 0.137 ± 0.049
88 | GCTAGACA | 0.164 ± 0.077
89 | GCCCTGCA | -0.219 ± 0.055
90 | CGGCTGTA | 0.0467 ± 0.0066
91 | CTCCTGAA | -0.199 ± 0.025
92 | AACCGAAG | 0.0737 ± 0.023
93 | AGACGTAA | -0.0693 ± 0.038
94 | AAGATACC | -0.104 ± 0.022
95 | ATCCATTG | -0.222 ± 0.026
96 | GGCATGGA | -0.123 ± 0.088
97 | AGCGCCAG | 0.157 ± 0.026
98 | CTGAATGC | -0.183 ± 0.015
99 | ACTCAGGC | -0.284 ± 0.018
100 | CCTGTCAA | 0.328 ± 0.025

Row | Sequence | PBM E-score of 8-mer
101 | AGCACCCT | 0.202 ± 0.025
102 | GTTATGTA | 0.0836 ± 0.028
103 | AGGAGCTG | 0.103 ± 0.044
104 | AAGGGCGA | -0.00873 ± 0.016
105 | TCCAGGGA | -0.1119 ± 0.00043
106 | CACACTCC | 0.402 ± 0.0059
107 | ACAGGGCG | 0.127 ± 0.029
108 | ATCCCGTG | -0.0915 ± 0.02
109 | AACATATC | 0.0176 ± 0.086
110 | CGGGAGAC | 0.00517 ± 0.026
111 | GCTCGGGA | -0.254 ± 0.0081
112 | ATGTGTGA | 0.4838 ± 0.001
113 | ATCTTTCC | -0.165 ± 0.013
114 | GATACGTA | -0.0311 ± 0.014
115 | AAGTAATC | -0.109 ± 0.1
116 | CCATGCCA | -0.128 ± 0.06
117 | AGTGAAAG | 0.156 ± 0.0046
118 | CAAGGTCA | 0.116 ± 0.031
119 | ATTCTCGC | 0.325 ± 0.019
120 | CAGGATAG | -0.119 ± 0.093
121 | AGGTGCCC | 0.00863 ± 0.0099
122 | ATGAACAT | 0.0289 ± 0.022
123 | CAAACTAG | -0.123 ± 0.087
124 | ATCTTGGC | -0.191 ± 0.029
125 | GAACAGTC | -0.0343 ± 0.069

Row | Sequence | PBM E-score of 8-mer
126 | AGAAAGAG | -0.0877 ± 0.019
127 | CCCGTTTC | -0.0892 ± 0.0065
128 | TACGGTGA | 0.0931 ± 0.046
129 | GCCAGGGC | -0.144 ± 0.073
130 | CTCTGCCC | -0.186 ± 0.043
131 | AAGGACTA | -0.166 ± 0.0059
132 | AGCGGGCC | -0.229 ± 0.0036
133 | CGCCCTCC | -0.17 ± 0.027
134 | CCGAACAA | -0.183 ± 0.053
135 | AAGGTTGA | 0.00741 ± 0.018
136 | CTCAGCAG | -0.03005 ± 1.4e-05
137 | CGTTCACA | 0.418 ± 0.0069
138 | CACCAGGA | 0.114 ± 0.059
139 | AGGGGGAA | -0.16 ± 0.019
140 | AATCTAGT | -0.111 ± 0.061
141 | ACTTCTTC | 0.0991 ± 0.03
142 | TCAGAAAA | -0.122 ± 0.12
143 | CCCCTCTA | -0.134 ± 0.0071
144 | CCTGCTGA | -0.181 ± 0.031
145 | AAGGTCAC | 0.164 ± 0.036
146 | AACTACAG | 0.0252 ± 0.038
147 | GAGCAAGC | -0.0346 ± 0.062
148 | CGTATTAC | 0.00581 ± 0.029
149 | GACCCTAA | -0.179 ± 0.003
150 | GAGTTTAA | -0.00764 ± 0.1

Row | Sequence | PBM E-score of 8-mer
151 | CGCTTGAC | 0.136 ± 0.0033
152 | ATTCAGGG | -0.0548 ± 0.041
153 | CGCATTGA | 0.0931 ± 0.044
154 | CTCTGAAC | -0.231 ± 0.017
155 | CGGATGAC | -0.0343 ± 0.14
156 | ATCGGACG | -0.105 ± 0.0022
157 | GGTGAAGA | 0.231 ± 0.026
158 | ACTAGCGG | -0.0663 ± 0.0081
159 | CAAGGAAA | 0.000855 ± 0.069
160 | TAGAGTCA | -0.17 ± 0.0056
161 | ATGCTCCC | 0.00753 ± 0.028
162 | GTTTTCCA | -0.179 ± 0.017
163 | TATGTTAA | 0.0661 ± 0.067
164 | GGCCCTGA | -0.106 ± 0.074
165 | CGCGACTA | 0.259 ± 0.023
166 | AAAAGACT | -0.177 ± 0.041
167 | AATGTCAT | -0.162 ± 0.031
168 | GACGAGAC | 0.0153 ± 0.01
169 | CGCTCTAA | -0.0375 ± 0.00095
170 | ATACAGCA | -0.117 ± 0.039
171 | TACTTGGA | -0.311 ± 0.035
172 | GTGACGGA | 0.2267 ± 0.002
